# From PubChem BioAssay AID588855 (National Center for Advancing Translational Sciences (NCATS), 2011)
# Where “and” joins values, the source holds several entries; their conditions need not be identical. Equal values may be shown once. Among all 410,000 compounds or so, about 5,000 (1.2%) were called active. Inconclusive results, whose numbers are uncertain, are shown with a selection of clear calls. Calls follow the shape of the dose curve; as a rule, active = well fitted inhibition curve with a large enough effect; inconclusive = small, poorly fitted or top-dose-only effect; inactive = no such curve, though single readings can be large or run the other way. Potencies beside an inconclusive call are fits to weak or partial responses and may not hold up.
# Assay: qHTS for Inhibitors of TGF-b; also: nearly all actives have a fitted effect of over 65% in size
# Details: HepG2 CAGA-GFP TGF-b/SMAD3 reporter, GFP fluorescence, 18 h, TGF-beta stimulated, 500 pg/mL final; series mostly up to 46.1 µM; activity, negative = inhibition: at the top concentration
# Text: TGF-b is a main component in the TGF-b signaling pathway which plays diverse roles in cellular and development pathways. TGF-b is the mediated by the transcription factors Smads. Although the Smad-dependent pathway is the primary canonical TGF-b signaling node, TGF-b1 can also activate alternative signaling pathways, including those involving MAPK (ERK, JNK and p38). This interaction may mediate or enhance Smad-dependent responses, or can exert Smad-independent effects. The complexity of this signaling cascade allows the TGF-b superfamily to perform unique, overlapping or redundant functions. We believe that targeting the TGF-beta pathway at the Smad-transcription factor level may eliminate the consequences of disrupting the entire pathway and offer specificity without affecting other signaling pathways. Smad3 is the primary transducer of TGF-b's signals and Smad3 regulates many functions attributed to TGF-b signaling. We hypothesize that Smad3 inhibitors will selectively eliminate Smad3-specific TGF-beta signals without undesired off-target effects. We aim to identify Smad3-small molecule antagonists using a quantitative high throughput screening (qHTS) approach.
# A high-throughput assay was developed to screen the NIH Molecular Libraries Small Molecule Repository (MLSMR). This is a cell based assay, where TGF-b is tagged with GFP. A counterscreen is run that looks at cytotoxicity (please see summary AID).
# MH087449NIH Chemical Genomics Center [NCGC]
# NIH Molecular Libraries Probe Centers Network [MLPCN]
# Assay Submitter (PI): Sushil Rane, National Institute of […]
# Suspensions of trypsinized HEPG2 CAGA-GFP cells were dispensed into white, tissue culture-treated, solid 1536-well plates at 5uL/well (1000 cells/well final concentration) in DMEM medium supplemented with 1% FBS. Plates were incubated at 37 degrees C for 2 hours, after which 23 nL of compounds or DMSO were delivered to each well using a pin tool. One uL of recombinant TGF-beta in DMEM (1% FBS) was then dispensed (500 pg/mL final concentration), and plates were incubated at 37 degrees C for 18 hours. The plates were measured on an Acumen eX3 Explorer plate reader for GFP fluorescence (ex488/em500-530). GFP values were calculated by determining the mean GFP fluorescence of individual cells, and compiling these values for each well to determine a total well GFP signal. The %Activity was determined from the corrected fluorescence values. A titration of the known TGF-B inhibitor SB431542 was included to monitor plate performance, while unstimulated HEPG2 (-TGF-B) control wells were used to normalize %Activity of identified inhibitors; unstimulated wells corresponded to 100%Activity (full inhibition), while stimulated cell controls (+DMSO) were used to normalize 0%Activity (no inhibition).
# Concentration-response curves were fitted to the signals arising from the resulting fluorescence. The concentration-effect curves were then classified based on curve quality (r2), response magnitude and degree of measured activity, and compounds were subsequently categorized based on their curve class.
# Potency is read from the fitted curve at half-maximal effect; tags tell the direction and shape of the fitted curve.
SMILES,Potency,"activity, negative = inhibition"
Cc1ccc(SCCN2CCN(C)CCC2=O)cc1,"inconclusive: 10 µM [inhibitor, partial curve, poor fit]",–
CC(=O)Nc1cccc(-c2ccnc3c2CC(C(=O)Nc2cccc(Oc4ccccc4)c2)O3)c1 (centres undefined),"inconclusive: 35.5 µM [inhibitor, single point]",–
COc1nc(N)nc2c1ncn2C1OC(CO)CC1O (centres undefined),–,inactive: -15%
CC(=O)N1CCCc2cc(S(=O)(=O)N3CCCC(C(=O)NCc4ccc(Cl)cc4)C3)ccc21 (centres undefined),"inconclusive: 10 µM [inhibitor, single point] and inconclusive: 12.6 µM [inhibitor, single point]",–
COc1cccc(Oc2ncnc(N)c2[N+](=O)[O-])c1,"inconclusive: 15.8 µM [inhibitor, single point]",–
CCOc1ccc(Nc2nc(Cc3nnc(SCC(=O)c4ccc(C)cc4)o3)cs2)cc1,"inconclusive: 2.51 µM [inhibitor, partial curve, poor fit]",–
C#CCN(C[C@@H](CC(C)C)NC(=O)OC(C)(C)C)S(=O)(=O)c1ccc(Br)cc1F,"inconclusive: 35.5 µM [inhibitor, single point]",–
CC(=NNC(=S)N1CCCC1)c1ccccn1,"inconclusive: 0.316 µM [inhibitor, full curve]",–
CN(C)c1ccc(CN(CC2CCCO2)C(=O)COc2ccc(Cl)cc2)cc1 (centres undefined),–,inactive: -19.2%
CCC1CCCCN1S(=O)(=O)c1ccc(NC(=O)C2CCN(C(=O)c3ccco3)CC2)cc1 (centres undefined),"inconclusive: 14.1 µM [inhibitor, single point]",–
CCc1ccc(-n2c(C)nc3cc(C(=O)NCCc4ccccc4)ccc32)cc1,"inconclusive: 11.2 µM [inhibitor, single point]",–
O=C(Nc1cccnc1)C1Cc2c(-c3ccc4c(c3)OCO4)ccnc2O1 (centres undefined),–,inactive: 7.6%
COc1ccccc1NS(=O)(=O)c1cccc(NC(=O)c2ccc3ccccc3n2)c1,"inconclusive: 35.5 µM [inhibitor, single point]",–
COC(=O)c1ccc2c(=O)n(-c3ccc(OC)cc3)c(=S)[nH]c2c1,–,inactive: -14.3%
Cc1cc(C)c(CN2CCN(C(=O)Cn3cnc(C(=O)Nc4ccc(C)c(C)c4)n3)CC2)c(C)c1,active: 15.8 µM,–
CCCn1c(=O)c2sccc2n2c(CCCC(=O)NCCOC)nnc12,–,inactive: 0.41%
CCCNC(=O)COC(=O)/C=C/c1ccco1,"inconclusive: 2.82 µM [inhibitor, single point]",–
O=C(c1cccs1)N1CCN(C/C=C/c2ccccc2)CC1,"inconclusive: 35.5 µM [inhibitor, single point]",–
COc1ccccc1-c1noc2c1C(=O)N(C(=O)OC(C)(C)C)CC2,–,inactive: 9.41%
CC1CC(C)CN(C(=O)C(C)N(C)CC(=O)Nc2ccc(Cl)cc2)C1 (centres undefined),"inconclusive: 31.6 µM [inhibitor, single point]",–
CCCSc1cc(NCCOC(=O)CCC)c([N+](=O)[O-])c2nonc12,"inconclusive: 12.6 µM [inhibitor, single point]",–
CCn1cc(CN2CCCC(CO)(Cc3ccc(F)cc3)C2)c2ccccc21 (centres undefined),"inconclusive: 35.5 µM [inhibitor, single point]",–
CN(c1ccccc1)S(=O)(=O)c1cccc(NC(=O)CC(C)(C)C)c1,–,inactive: -1.69%

SMILES,Potency,"activity, negative = inhibition"
CCOC(=O)c1c(-c2ccccc2)nnn1-c1nc(OC)nc(N2CCOCC2)n1,–,inactive: 14.4%
O=Cc1cccc(Oc2ccc([N+](=O)[O-])cc2[N+](=O)[O-])c1,–,inactive: -15.4%
CC(C)(C)c1ccc(C2(C)NC(=O)NC2=O)cc1 (centres undefined),–,inactive: -1.83%
CCCC[C@@H]1CCCO[C@@](C(=O)NCC2CC2)(C(F)(F)F)C1,"inconclusive: 2.51 µM [inhibitor, partial curve, poor fit]",–
Cc1noc(/C=C/c2cccs2)c1S(=O)(=O)N1CCC(C(=O)NCCCN2CCC(C)CC2)CC1,"inconclusive: 12.6 µM [inhibitor, partial curve, poor fit]",–
COc1cc2[nH]c(=S)nc(NCc3ccc(Cl)cc3)c2cc1OC,–,inactive: -1.09%
CN(C(=O)c1cccc(NC(=O)Cc2ccc(NC(=O)C3CCCN(C(=O)C4CCC4)C3)cc2)c1)C1CCC1 (centres undefined),–,inactive: -26%
CCc1cc(C(=O)Cc2cnn(-c3ccccc3)c2)c(O)cc1O,"inconclusive: 17.8 µM [inhibitor, single point]",–
COc1ccc(/C(C)=N/NC(=O)c2nnn(-c3nonc3N)c2CN(C)c2ccccc2)cc1,–,inactive: 4.66%
Cc1ccc(C(=O)Nc2ccc(C(F)(F)F)n(C)c2=O)cc1,"inconclusive: 17.8 µM [inhibitor, single point]",–
O=S(=O)(NCCc1ccncc1)c1ccc(Br)cc1,"inconclusive: 6.31 µM [inhibitor, single point]",–
COc1ccc2c(c1)c(/C=C/c1cc[n+](C)cc1)cn2C,–,inactive: 117%
CCOc1ccccc1CNC(=O)c1ccc(Cn2c(SCc3ccccc3)nc3cccnc32)cc1,"inconclusive: 8.91 µM [inhibitor, single point]",–
COc1ccc(NC(=O)c2ccccc2NC(=O)CSc2ccccc2)cc1,"inconclusive: 20 µM [inhibitor, single point]",–
CC(C)(C)C(=O)N1CCN(c2nc3ccc(Cl)cc3s2)CC1,–,inactive: 0%
Cc1cc(C)c2nc(NC(=O)c3ccc(S(=O)(=O)N4CCC(C)CC4)cc3)sc2c1,"inconclusive: 22.4 µM [inhibitor, single point]",–
CN(C)C(=O)N1CCC(C(=O)N2CCCC(C(=O)c3ccc(C(C)(C)C)cc3)C2)CC1 (centres undefined),"inconclusive: 15.8 µM [inhibitor, single point]",–
CSc1ccc(CNC(=O)CCc2c(C)nn(-c3ccc(N4CCCC4)nn3)c2C)cc1,"inconclusive: 10 µM [inhibitor, partial curve, poor fit]",–
CNC(=O)CSc1n[nH]c(-c2cc(Cl)ccc2OC)n1,"inconclusive: 0.112 µM [inhibitor, full curve, poor fit]",–
CN1CCN(C(=O)c2ccc3c(c2)N(C)C(=O)/C(=C/c2cccc(Cl)c2)S3)CC1,"inconclusive: 25.1 µM [inhibitor, single point]",–
Cc1cc(S(=O)(=O)N2CCCCC2)ccc1OCC(=O)Nc1ccccc1,–,inactive: -6.94%
C[C@@H]1C(=O)O[C@@H]1[C@@H](C)CO[Si](c1ccccc1)(c1ccccc1)C(C)(C)C,–,inactive: 0.422%
O=C1NN=C(c2ccc(Cl)cc2)CC1c1cccc(Br)c1 (centres undefined),active: 10 µM,–

SMILES,Potency,"activity, negative = inhibition"
Cc1cc(C(=O)NNC(=S)NCC2CCCO2)cs1 (centres undefined),"inconclusive: 11.2 µM [inhibitor, single point]",–
CC(=O)c1ccc(NC(=O)CSc2nc(C3CCCC3)nc3c2c(=O)n(C)c(=O)n3C)cc1,–,inactive: -1.61%
CCC1(CC)NC(=O)N(CC(=O)Nc2ccc(OCc3ccccc3)cc2)C1=O,–,inactive: 12.9%
CC(CN1CCN(CCOCCO)CC1)CN1c2ccccc2Sc2ccc(Cl)cc21 (centres undefined),"inconclusive: 15.8 µM [inhibitor, single point]",–
CCOC(=S)SCC(=O)Nc1nc(-c2ccccc2)cs1,"inconclusive: 15.8 µM [inhibitor, partial curve, poor fit]",–
COc1ccccc1N(C)S(=O)(=O)c1ccc(C)c(C(=O)Nc2nccs2)c1,"inconclusive: 2.51 µM [inhibitor, partial curve, poor fit]",–
Nc1ccc(CC(N)c2csc(Nc3cc(Oc4ccccc4)ncn3)n2)cc1 (centres undefined),"inconclusive: 35.5 µM [inhibitor, single point]",–
NS(=O)(=O)c1ccc(NC(=O)COC(=O)c2cn(-c3ccccc3)nc2-c2ccccc2)cc1,"inconclusive: 35.5 µM [inhibitor, single point]",–
OC(c1ccc(Cl)c(F)c1)c1ncc(-c2ccccc2C(F)(F)F)[nH]1 (centres undefined),"inconclusive: 35.5 µM [inhibitor, single point]",–
O=C(CCl)N(C/C=C/c1ccccc1)c1ccc2c(c1)OCCO2,"inconclusive: 25.1 µM [inhibitor, partial curve, poor fit]",–
COc1cc(NC(=S)NCCCN2CCOCC2)c(OC)cc1Cl,–,inactive: -8.68%
CCOc1ccccc1CNC(=O)CCc1cn(CC)c2ccccc12,–,inactive: 0.0297%
CCOC(=O)c1cnc2ccc(Cl)cc2c1Nc1ccc(OCC)cc1,–,inactive: 9.08%
Cn1ccnc1SCC(=O)c1ccc(F)cc1,–,inactive: 0.949%
CCOC(=O)c1ccc(NC(=O)CC2C(=O)N(c3ccc(F)cc3)C(=O)N2Cc2ccc(C)cc2)cc1 (centres undefined),"inconclusive: 35.5 µM [inhibitor, single point]",–
COc1cc(C#Cc2c(-c3cncn3C)n(C)c3ccc(-c4ccc5cc[nH]c5c4)cc23)cc(OC)c1,–,inactive: -9.8%
COc1ccc(Nc2cc(C(=O)NCCCN(C)Cc3ccccc3)c3ccccc3n2)cc1,"inconclusive: 22.4 µM [inhibitor, single point]",–
C[C@@H]1CN([C@H](C)CO)C(=O)c2cc(Br)cnc2O[C@H]1CN(C)C(=O)Nc1ccccc1F,–,inactive: 0.364%
Nc1nnc(CC(=O)N/N=C/c2ccccc2OCc2ccccc2F)s1,–,inactive: -13.8%
Cc1ccc2nc(C3CCCN(C(=S)Nc4cccc(C)c4C)C3)[nH]c2c1 (centres undefined),"inconclusive: 17.8 µM [inhibitor, single point]",–
COc1ccc(C(=O)N(C)CC2CCN(CCc3cccc(C(F)(F)F)c3)CC2)cc1C,"inconclusive: 11.2 µM [inhibitor, partial curve, poor fit]",–
CCOC(=O)c1ccc(NC(=S)N2CCN(c3ccccn3)CC2)cc1,"inconclusive: 3.55 µM [inhibitor, single point]",–
COc1ccc(NC(=O)c2ccccc2)cc1,"inconclusive: 4.47 µM [inhibitor, full curve, poor fit]",–
